# “And” between values parts separate entries of the source, which are not always exact repeats. Equal values may be shown once. Out of some 420,000 compounds screened, about 50,000 (12%) were called active. This list was built around the results that the source calls inconclusive (neither active nor inactive); the mix of calls is not that of the screen. The call rests on the fitted dose curve; in most records, active means well fitted inhibition curve with a large enough effect; inconclusive means small, poorly fitted or top-dose-only effect; inactive means flat fitted curve, though single readings scatter. Where the call is inconclusive, the potency comes from a doubtful curve fit.
# Assay: qHTS for Inhibitors of human tyrosyl-DNA phosphodiesterase 1 (TDP1): qHTS in cells in presence of CPT; further: nearly all actives have a fitted effect of over 55% in size
# Settings: chicken DT40 Tdp1-/-;hTDP1 cells + 20 nM CPT, ATP luminescence, 48 h; activity change, negative = growth inhibition: at 46.2 µM (top of the series)
# How it was run: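 Cell growth measured by CellTiter-Glo luminescence after a minimum 48 h, 37 C compound exposure with 20 nM CPT in Tdp1-knockout DT40 cells stably expressing hTDP1, seeded 400/well; qHTS titration format.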
# On the % scale 0 is the no-effect control and ±100 the full control effect; potency means the concentration at half of the fitted maximal effect; tags describe the fitted curve by direction and shape.
SMILES,Potency,"activity change, negative = growth inhibition"
COc1ccc(Cl)cc1NC(=O)CCCS(=O)(=O)c1nc(-c2ccc(OC)c(OC)c2)cc(C(F)(F)F)n1,active: 1.46 µM,–
Cc1cccc(NC2=C(NC(=O)c3ccccc3)C(=O)c3ccccc3C2=O)c1,active: 10.3 µM,–
Cn1c(=O)c2c(SCC(N)=O)nc(CC(C)(C)C)nc2n(C)c1=O,–,inactive: -29.8%
O=C(Nc1cnn(C23CC4CC(CC(C4)C2)C3)c1)c1cc(-c2ccccc2)on1,active: 23.1 µM,–
CN(C)S(=O)(=O)c1cccc(C(=O)Nc2cc(Cl)cc(Cl)c2)c1,"inconclusive: 29.1 µM [inhibitor, single point]",–
N#CC(c1ccccc1)c1ccc([N+](=O)[O-])cc1 (stereo unspecified),"inconclusive: 29.1 µM [inhibitor, single point]",–
CCC(Cc1ccccc1)NC(=O)Cn1ncc2c3ccccc3n(Cc3ccc(F)cc3)c2c1=O (stereo unspecified),active: 8.2 µM,–
CS(=O)(=O)Nc1cccc(-c2nc(-n3ccnc3)c3ccccc3n2)c1,"inconclusive: 20.6 µM [inhibitor, single point]",–
CC(=O)Nc1cccc(/C(C)=N/NC(N)=S)c1,–,inactive: 10.7%
COc1ccc(-c2c(C3=CCCCC3)oc3ccc(-c4ccc5c(c4)OCO5)cc23)cn1,"inconclusive: 25.9 µM [inhibitor, single point]",–
Cc1cc(C)n2c(Nc3cccc(C(F)(F)F)c3)c(-c3ccsc3)nc2n1,active: 16.4 µM,–
Cc1oc(-c2ccccc2Cl)nc1CS(=O)CC(=O)NCc1ccc2c(c1)OCO2 (stereo unspecified),–,inactive: -13.6%
Nc1ccccc1-c1n[nH]c(=S)s1,–,inactive: 2.85%
Cc1ccc(NC(=O)CNc2ccccc2N2CCCC2=O)cc1S(=O)(=O)N1CCCCC1,active: 16.4 µM,–
CC1=NN(c2ccccc2)C(=O)/C1=C/N(C)C,–,inconclusive: -32.6% [inhibitor]
COc1ccc(NC(=O)c2cc(C(=O)Nc3ccc(OC)cc3OC)cc([N+](=O)[O-])c2)c(OC)c1,–,inactive: -21.2%
C/C(Cc1ccccc1)=N\NC(=O)CNC(=O)c1ccccc1F,"inconclusive: 0.0184 µM [inhibitor, full curve, poor fit]",–
Cc1ccc(N(C(=O)Cn2nnc(-c3ccc(C)o3)n2)C(C(=O)NC2CCCC2)c2ccncc2)cc1 (stereo unspecified),"inconclusive: 29.1 µM [inhibitor, single point]",–
Cc1cccc(N2CCN(C(=O)c3ccc(CNc4c(N5CCC(C)CC5)c(=O)c4=O)cc3)CC2C)c1 (stereo unspecified),active: 20.6 µM,–
Cc1cc(C(=O)COC(=O)c2n[nH]c(=O)c3ccccc23)c(C)n1C(C)C,"inconclusive: 29.1 µM [inhibitor, partial curve, poor fit]",–
Cc1ccc(C(=O)C2CCN(C(=S)NCCCOC(C)C)CC2)cc1,"inconclusive: 18.4 µM [inhibitor, single point]",–
O=c1cc(-c2cccc(O)c2)oc2c(O)c(O)ccc12,"inconclusive: 33.5 µM [inhibitor, single point]",–
Cc1onc(-c2c(F)cccc2Cl)c1C(=O)N(Cc1ccccc1)C(C)C,"inconclusive: 20.6 µM [inhibitor, single point]",–
CCOc1ccccc1NC(=O)c1nnn(CC(=O)Nc2ccccc2CC)c1N,–,inactive: 1.48%

SMILES,Potency,"activity change, negative = growth inhibition"
Cc1cc(C)cc(-n2ccnc2SCC(=O)Nc2ccc(C)c(Cl)c2)c1,active: 16.4 µM,–
O=C(N/C=C/n1cnc2cc(C(F)(F)F)ccc21)c1ccc(F)cc1,–,inconclusive: -30.9% [inhibitor]
COc1ccc(-c2nc(S(=O)(=O)c3ccccc3)c(NCCCN3CCOCC3)o2)cc1,"inconclusive: 16.4 µM [inhibitor, partial curve]",–
O=C(Cn1nnnc1-c1ccccc1F)Nc1ccc(F)c(F)c1,–,inactive: -27.3%
O=C(CN1CCN(c2ccc(Cl)cc2)CC1)Nc1ccc(F)c(F)c1,"inconclusive: 29.1 µM [inhibitor, single point] and inconclusive: 18.4 µM [inhibitor, single point]",–
O=S(=O)(O)c1cc(Cl)cc(N=Nc2ccc(O)cc2O)c1O,–,inactive: -11.3%
CCC(=O)N1c2ccccc2CC1C(=O)NCCc1ccc(Cl)cc1 (stereo unspecified),–,inactive: -27.3%
FC(F)(F)c1ccc(C2[C@H]3CN(CC4CCCCC4)[C@H](c4ccccc4)C34CC2(c2cccnc2)C4)cc1 (stereo partly specified),"inconclusive: 18.4 µM [inhibitor, single point]",–
COc1nc(-c2ccncc2)nc2ccccc12,–,inactive: -5.19%
COc1cccc(C2(CC(=O)N3CCN(c4ccccc4O)CC3)CC(=O)N(C3CCCC3)C2=O)c1 (stereo unspecified),"inconclusive: 18.4 µM [inhibitor, single point]",–
COc1ccc(C(=O)N2CCCC2)cc1,–,inactive: -13%
CCOc1cc2[nH]c(=S)n(Cc3ccc(C(=O)NCCN(CC)CC)cc3)c(=O)c2cc1OCC,"inconclusive: 18.4 µM [inhibitor, single point]",–
Cc1ccc(-c2nnn(CC(=O)N(c3ccccc3F)C(C(=O)NC3CCCC3)c3ccco3)n2)o1 (stereo unspecified),active: 29.1 µM,–
O=C(Nc1cccc([N+](=O)[O-])c1)Nc1ccc(Cl)cn1,–,inactive: 4.19%
C=CCOc1ccc2c(c1)C(=NO)c1cc(OCC=C)ccc1-2,"inconclusive: 18.4 µM [inhibitor, single point]",–
Cn1c(-c2ccc(F)cc2)cnc1NCc1ccc(C#N)cc1,"inconclusive: 14.6 µM [inhibitor, partial curve, poor fit]",–
CCNC(=O)C[C@@H]1CC[C@@H]2NC[C@@H](O)COC[C@H]2O1,–,inactive: -2.68%
Cc1ccc(/C=N/NC(=O)c2sccc2OCc2ccc(F)cc2)cc1,active: 16.4 µM,–
CCCCc1cc(=O)oc2cc(C)cc(OC(C)C(=O)NCc3cccnc3)c12 (stereo unspecified),"inconclusive: 23.1 µM [inhibitor, single point]",–
O=C(N/N=C\c1ccc(CNS(=O)(=O)c2ccccc2)o1)C(=O)Nc1ccc(F)cc1,"inconclusive: 20.6 µM [inhibitor, single point]",–
CS(=O)(=O)c1ccc(C(=O)OCC(=O)N2CCCC2)cc1[N+](=O)[O-],active: 5.01 µM,–
CCCN(CC1CC1)C(=S)Nc1ccc(Oc2ccccc2)cc1,"inconclusive: 29.1 µM [inhibitor, single point]",–
O=C(N/N=C/c1ccc(Br)s1)c1ccco1,"inconclusive: 18.4 µM [inhibitor, single point]",–
N=c1oc2ccc(Cl)cc2cc1C(=O)NC1CCCCCC1,active: 25.9 µM,–

SMILES,Potency,"activity change, negative = growth inhibition"
Clc1ccc2ncnc(NCc3ccc4c(c3)OCO4)c2c1,active: 3.16 µM,–
COc1ccc(-c2noc(CN(C)S(=O)(=O)c3ccc(Cl)cc3)n2)cc1OC,"inconclusive: 20.6 µM [inhibitor, single point]",–
CCOc1ccc(CNCc2ccccc2Cl)cc1,active: 16.4 µM,–
CC(C)C(=O)Nc1c2c(nn1-c1ccc(F)cc1)CSC2,–,inactive: 6.26%
O=C(Nc1ccccc1)N1CCCC2CCCCC21 (stereo unspecified),"inconclusive: 20.6 µM [inhibitor, single point]",–
COc1ccc(C(=O)CSc2n[nH]c(C)n2)cc1[N+](=O)[O-],–,inactive: 0.218%
Fc1ccc2[nH]c3c(NCCN4CCOCC4)ncnc3c2c1,"inconclusive: 20.6 µM [inhibitor, single point]",–
CC1(C(=O)NS(=O)(=O)Cc2ccccc2)CCN1C(=O)C1(c2ccc(Cl)cc2)CCC1 (stereo unspecified),"inconclusive: 16.4 µM [inhibitor, partial curve, poor fit]",–
CCOC(=O)N1CCc2c(sc3c2c(=O)n(-c2ccc(F)cc2)c(=O)n3CC(=O)c2ccccc2)C1,"inconclusive: 7.31 µM [inhibitor, partial curve]",–
O=C(NCc1ccccc1)C(c1ccccc1F)n1c(=O)c(-c2ccco2)nc2ccccc21 (stereo unspecified),"inconclusive: 25.9 µM [inhibitor, single point]",–
CC(=O)c1ccc2c(c1)OCCOCCOc1ccc(C(C)=O)cc1OCCOCCO2,"inconclusive: 16.4 µM [inhibitor, single point]",–
Cc1ccc(S(=O)(=O)N2CCCCC2)cc1NC(=O)COC(=O)c1ccccc1F,–,inactive: -22.6%
O=C(CCc1nnc(CCCCc2ccccc2)o1)NCCCc1cccnc1,"inconclusive: 29.1 µM [inhibitor, single point]",–
CCc1ccc(NC(=O)c2cc(C)nn2-c2ccccc2)cc1,"inconclusive: 29.1 µM [inhibitor, single point] and inconclusive: 16.4 µM [inhibitor, partial curve]",–
COc1cc(CCCN2CCNC[C@@H]2c2ccccc2)cc(OC)c1OC,–,inactive: -11.8%
NC(=O)c1cccc(-c2ccnc3c2CC(C(=O)Nc2cccc(Oc4ccccc4)c2)O3)c1 (stereo unspecified),"inconclusive: 18.4 µM [inhibitor, single point]",–
COc1ccc(C2c3cc4c(cc3OC(N3CCOCC3)C2C)OCO4)c(OC)c1 (stereo unspecified),active: 5.17 µM,–
Cc1ccc(C(C)C)c2oc(=O)cc(-c3ccc(-c4ccc(C(F)(F)F)cc4)cc3)c12,active: 14.6 µM,–
CCOC(=O)c1c(C)n(-c2ccccc2)c2ccc(OC(=O)c3cc(OC)cc(OC)c3)cc12,"inconclusive: 16.4 µM [inhibitor, single point]",–
Cc1c(C(=O)NCC2CC2)sc2ncnc(NCCN3CCCCC3)c12,–,inactive: -2.85%
Cc1cccc(C(=O)NNC(=O)c2ccc(-c3ccccc3)cc2)c1,"inconclusive: 8.2 µM [inhibitor, partial curve, poor fit]",–
CCCCCCCCN1C(=O)[C@H](CC(=O)NCCCC)C[C@@]2(C(=O)OC)CCCCC=C12,active: 16.4 µM,–
COc1ccc(CCNC(=O)CN(C)S(=O)(=O)c2ccc3nc(C)sc3c2)cc1OC,–,inactive: -27.7%

# — PubChem BioAssay AID686979 (National Center for Advancing Translational Sciences (NCATS), 2013)
